± gives the standard deviation of the averaged measurements. The list shows a part of the results.

The assay relates to PfAP2-I AP2 domain 3 (GST-tagged). In words: gcPBM binding intensity (ln(normalized median fluorescence intensity)); higher = stronger DNA binding. In short, it runs like this:
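After 1 h on an Agilent 4 × 180k array of primer-extended double-stranded 36-bp intergenic genomic probes and negative controls, bound GST-tagged P. falciparum DNA-binding domains were detected with Alexa488 anti-GST antibody and scanned at 488 nm. The domains had been expressed in E. coli, and binding took place in 1× PBS with 1% milk, 0.2 mg/ml BSA, 0.5% salmon testes DNA and 0.03% Triton X-100. Binding intensity is the highest Masliner-normalised natural-log median intensity across replicate spots of either probe orientation.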
Consider “AAAAAAAAGGAAATAACACACATGTATTTATTTATA [CACACA_site4966]”, for which the “gcPBM binding intensity (ln)” value was determined as 7.38 ± 0.55. On to “TATAATCATATTAAGGGTACATATGTGTAAATATTT [XGTACX_site6018]”, for which the “gcPBM binding intensity (ln)” value is 8.21 ± 0.63. The figure for “TTATTATAAATGTTTTGTACGTACATCCGAAAATAA [XGTACX_site2175]” is 8.18 ± 0.27; for “CTTTAAAACCGGTACTGTACACATAGTATTATTATC [XGTACX_site2602]” it is 8.03 ± 0.49. For the sequence “ATAATAATAATATAACCAAGGAAATATAATATTTGT [XGTACX_negctrl_site485]”, the “gcPBM binding intensity (ln)” value came out at 7.32 ± 0.42.

Turning to “ATATTTATACATAAATGTACTTTTATATATTTAATA [XGTACX_site3020]”, the “gcPBM binding intensity (ln)” value stood at 7.64 ± 0.38. In the case of “AATATTATAAATGATACACACTTAAAATACACGCAC [CACACA_site7305]”, the “gcPBM binding intensity (ln)” value was 8.71 ± 0.22.

With “TATTACATAATACAAAGTACATATATTTTTTTATTT [XGTACX_site7061]”, the “gcPBM binding intensity (ln)” value was determined as 7.53 ± 0.33. The figure for “GTATATATATATATATGTACTAATTAGTAGTTTACG [XGTACX_site6274]” is 8.13 ± 0.24; for “AGCACATATATATTATGTACATATAACTTCCCAGTG [XGTACX_site7095]” it is 7.78 ± 0.54; for AATATTTTATTTTGGGTGCAAAAGAATATTATTTCA it is 10.5 ± 0.65. As for “AATATAAATATTAAAACACACATAAAAAGATTATTA [CACACA_site1764]”, the “gcPBM binding intensity (ln)” value stood at 7.6 ± 0.26. As for “TGATATTTACAAATATTAAGATCTTATATTTTTTTT [CACACA_negctrl_site617]”, the “gcPBM binding intensity (ln)” value amounted to 7.3 ± 0.64. As for “GTGTGAAACATAAACACACACAAAAAGAAAAAATAG [CACACA_site1227]”, the figure is 7.83 ± 0.67. With “TATATATATATATTACGTACATAGAACTTTATAAAA [XGTACX_site4485]”, the “gcPBM binding intensity (ln)” value stood at 9.22 ± 0.23.

On to “ATAGAACTATATTGCACACATAATATATATATATAT [CACACA_site3189]”, for which the “gcPBM binding intensity (ln)” value amounted to 10.5 ± 0.52. Turning to “GTAAAAAATATGACAAGTACAAGAAAAGAAAAAAGT [XGTACX_site7906]”, the “gcPBM binding intensity (ln)” value is 8.38 ± 0.73.

In the case of “AAAAGATTTATACATACACACATATTATATTCACAT [CACACA_site3713]”, the “gcPBM binding intensity (ln)” value stood at 7.77 ± 0.71. For the sequence “TTATAAATATAAAAATGTACAGAAAAAAAAAATAAA [XGTACX_site863]”, the “gcPBM binding intensity (ln)” value is 7.84 ± 0.47. Turning to “TTATTTTATAATAAAAGTACACAAAAAAAAAAAAAA [XGTACX_site7668]”, the “gcPBM binding intensity (ln)” value was found to be 8.05 ± 0.37. With “TTATTTCTCTTTTCAGTGCATTTTATAACAAAAAAA [GTGCAC_site9930]”, the “gcPBM binding intensity (ln)” value was 9.855 ± 0.078. For the sequence “ATATATATAATATGCGGTACACATTAATTAAATCAT [XGTACX_site5702]”, the “gcPBM binding intensity (ln)” value was 8.37 ± 0.43. The figure for “TTATAATATATATACAGTACATATATAAAATAATAT [XGTACX_site5917]” is 7.79 ± 0.33; for “TAATATAAAGAAAAGGAACACACAAATATATATATA [CACACA_site8049]” it is 8.91 ± 0.099; for TTTTCTTGGTTCAGTGTGCACTTATATATATATATA it is 10.3 ± 0.2. Consider “ATGGACATCTATTGTTGTACACATTTTCCCATAACA [XGTACX_site5429]”, for which the “gcPBM binding intensity (ln)” value turned out to be 8.12 ± 0.42. Regarding “GTAGAGCATAATAAAACACACACATACATACATATA [CACACA_site8217]”, the “gcPBM binding intensity (ln)” value is 8.27 ± 0.24. Turning to “GAATATAAAATATATATATATATATATATATATATA [GTGCAC_negctrl_site425]”, the “gcPBM binding intensity (ln)” value was found to be 9.18 ± 0.67.

Take “TTTCAAAAATGAGTTACACACACACGGATATAAATA [CACACA_site7116]”: the “gcPBM binding intensity (ln)” value was 7.87 ± 0.57. With “AATTTTAAGAGCTATACATGCACTTCATAAAAAGTG [TGCATGCA_site180]”, the “gcPBM binding intensity (ln)” value turned out to be 9.24 ± 0.16. As for “ATAATAAAAAAAAATGCACACATATATATATATATA [CACACA_site8766]”, the “gcPBM binding intensity (ln)” value stood at 9.59 ± 0.47. For the sequence “AATATATATATATATACACACACACCGATATATATA [CACACA_site8158]”, the “gcPBM binding intensity (ln)” value came to 8.1 ± 0.52. As for “TAACAATTAATAAAAGGTACACTTGAATATGCACCA [XGTACX_site2717]”, the “gcPBM binding intensity (ln)” value was 10.8 ± 0.59. Consider “TTAATATTTAGACATGCATGCTAATTACTATATATA [TGCATGCA_site27]”, for which the “gcPBM binding intensity (ln)” value was found to be 7.83 ± 0.24.

Turning to “ATTAATAAGAAATATACACACATGGATAAATACATA [CACACA_site1872]”, the “gcPBM binding intensity (ln)” value was determined as 7.58 ± 0.64. In the case of “TTTCTTGCTACATGAAGTACACTTTCTATGACTCGT [XGTACX_site5583]”, the “gcPBM binding intensity (ln)” value amounted to 7.92 ± 0.48.

Take “TATGATATAATTATGTGTACACAATTTTTTTTTTTT [XGTACX_site1084]”: the “gcPBM binding intensity (ln)” value turned out to be 8.05 ± 0.028. As for “ATATATATTTTATTCACACATAAGATTATAAAACAT [CACACA_site5369]”, the “gcPBM binding intensity (ln)” value is 7.96 ± 0.4.

Turning to “TGTGTTCAGTATTGCACACACACAACAAAATAAAAA [CACACA_site8017]”, the “gcPBM binding intensity (ln)” value amounted to 10 ± 0.74. Regarding “TTATTGCATTGTTTTTATAAAAAAAAAAAAAAAATT [XGTACX_negctrl_site104]”, the “gcPBM binding intensity (ln)” value was determined as 7.85 ± 0.17. The figure for “TAATTATGCAGACACACACACACACCCAACTAAAAA [CACACA_site2569]” is 8.38 ± 0.2; for “TATTTATTGTGATACTTATATTACTTAATGATTAAA [CACACA_negctrl_site676]” it is 7.42 ± 0.42. For the sequence “CTATTTCATGGACACACACACACAAACAAACATATA [CACACA_site4696]”, the “gcPBM binding intensity (ln)” value amounted to 8.29 ± 0.2.

As for “ATATATTATATAAAGTGTACAAAAAAAATATATAAA [XGTACX_site8065]”, the “gcPBM binding intensity (ln)” value was found to be 8.12 ± 0.6.

For the sequence “ATTGTCTTCTCATATACACACTTTTATGACTATCTT [CACACA_site5696]”, the “gcPBM binding intensity (ln)” value is 8.03 ± 0.66. With “TGTGTAATTATATATAAGGAGAAAGAATTCATTTTT [CACACA_negctrl_site670]”, the “gcPBM binding intensity (ln)” value turned out to be 7.57 ± 0.65. The figure for “ACAAAAAATAATCAAAATGTATATATATAATATAAT [XGTACX_negctrl_site593]” is 7.77 ± 0.42.

As to “TATTGAAGTTATAAAGTGCAGATAAATATGAGTTAT [GTGCAC_site9945]”, the “gcPBM binding intensity (ln)” value worked out at 9.34 ± 0.24. For “AAATGCCATATAATTTTTCTTAAACATAATTGTATA [CACACA_negctrl_site1665]”, the “gcPBM binding intensity (ln)” value was 7.42 ± 0.71. In the case of “GATTATACAAAATATACACACGTGTAGACAAATATT [CACACA_site4785]”, the “gcPBM binding intensity (ln)” value turned out to be 7.86 ± 0.76. For “ATAATATTATTATAATGTACATATTTCGATATAAAT [XGTACX_site8808]”, the “gcPBM binding intensity (ln)” value was 7.81 ± 0.45. As for “ATATTTAATGTTAATTGTACATATTATATATATATA [XGTACX_site6095]”, the figure is 9.22 ± 0.15; as for “AAAAAAATATATATTACACACATATATACCTATATA [CACACA_site5688]”, 7.71 ± 0.57. “ATATATATTAATAGGTGTACATATAAAGTGTTATGT [XGTACX_site5464]”: the “gcPBM binding intensity (ln)” value came to 8.21 ± 0.43. In the case of “AAAAAAAAATTTTTAAAATTTAGAAAATTTAAAAAA [GTGCAC_negctrl_site649]”, the “gcPBM binding intensity (ln)” value was determined as 7.17 ± 0.31. For the sequence “TAATAATGCAACCTCTGTACACAACATTATATCCAT [XGTACX_site7596]”, the “gcPBM binding intensity (ln)” value was 9.68 ± 0.32.
